Consider 33 cell lines from the supplement of paper PMC4967469.

IC50 is the fitted dose that halves viability relative to control wells, and lower means more sensitive; where the fit passes the top or lowest dose, that dose stands as a limit. The AUC spans the tested range (256-fold, ending at the top dose) of the same fit; the more sensitive the line, the further below 1. A top dose marked as inferred was calculated from the reported fits. For some assays here: An entry number marks a drug with two screens in the source, which often give different values.

Compound in the first experiment: NC(=O)c1ccc(N(C(N)=O)c2c(F)cccc2F)nc1-c1ccc(F)cc1F [VX-702]
Description: Viability of human cancer cell lines after 72 h of drug (GDSC screen). Particulars: top dose 2 µM; top dose inferred. The method, then: (§1)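 Human cancer cell lines in 384-well plates, medium with 10% serum, drug for 72 h over a 256-fold dose range (nine 2-fold or five 4-fold steps up to the top dose). Adherent lines were fixed and stained with the nucleic acid dye Syto60, suspension lines read with resazurin; signal relative to control wells, capped at 0 and 100%. One two-parameter sigmoid per drug and line, fitted in a mixed model over all curves with the slope shared within a line.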
For 639-V (bladder, adherent), the AUC was 0.981 and the IC50 is > 2 µM.

Consider 8305C (thyroid, adherent), for which the AUC was 0.981 and the IC50 was > 2 µM.

On to 8505C (thyroid, adherent), for which the AUC turned out to be 0.973 and the IC50 was > 2 µM.

Regarding “A427 (non-small cell lung carcinoma, adherent)”, the AUC came out at 0.967 and the concentration for half-maximal inhibition (IC50) is > 2 µM.

With AU565 (breast, adherent), the AUC was determined as 0.982 and the 50% inhibitory concentration (IC50) was > 2 µM.

On to AsPC-1 (pancreas, adherent), for which the AUC worked out at 0.946 and the half-maximal inhibitory concentration (IC50) was > 2 µM.

Consider BHT-101 (thyroid, adherent), for which the AUC was determined as 0.985 and the half-maximal inhibitory concentration (IC50) was > 2 µM.

Regarding BICR10 (head and neck, adherent), the AUC is 0.972 and the IC50 is > 2 µM.

In the case of BT-20 (breast, adherent), the AUC was 0.971 and the IC50 is > 2 µM.

With BT-483 (breast, adherent), the AUC came to 0.976 and the IC50 was > 2 µM.

For the cell line C32 (melanoma, adherent), the AUC was 0.987 and the IC50 is > 2 µM.

As to C-4-I (cervix, adherent), the AUC stood at 0.986 and the half-inhibitory concentration (IC50) is > 2 µM.

Take “CAL-12T (non-small cell lung carcinoma, adherent)”: the AUC turned out to be 0.978 and the 50% inhibitory concentration (IC50) was > 2 µM.

As to CAL-27 (head and neck, adherent), the AUC came to 0.921 and the IC50 was > 2 µM.

For the cell line CAL-33 (head and neck, adherent), the AUC was determined as 0.95 and the IC50 is > 2 µM.

For the cell line CAL-62 (thyroid, adherent), the AUC amounted to 0.988 and the IC50 is > 2 µM.

In the case of CAPAN-1 (pancreas, adherent), the AUC is 0.974 and the IC50 is > 2 µM.

CCK-81 (large intestine, adherent): the AUC came to 0.989 and the IC50 is > 2 µM.

In the case of CHP-212 (neuroblastoma, adherent), the AUC worked out at 0.927 and the IC50 was > 2 µM.

Turning to CHSA0108 (chondrosarcoma, adherent), the AUC worked out at 0.956 and the IC50 was > 2 µM.

As for DoTc2-4510 (cervix, adherent), the AUC is 0.974 and the IC50 was > 2 µM.

For the cell line HCC1395 (breast, adherent), the AUC stood at 0.982 and the half-maximal inhibitory concentration (IC50) was > 2 µM.

In the case of HCC1937 (breast, adherent), the AUC came to 0.976 and the IC50 is > 2 µM.

HCT-15 (large intestine, adherent): the AUC came to 0.987 and the IC50 is > 2 µM.

Consider HCT-116 (large intestine, adherent), for which the AUC stood at 0.976 and the IC50 was > 2 µM.

For the cell line HT-29 (large intestine, adherent), the AUC amounted to 0.987 and the IC50 is > 2 µM.

LoVo (large intestine, adherent): the AUC stood at 0.987 and the half-inhibitory concentration (IC50) is > 2 µM.

In the case of MHH-ES-1 (Ewing sarcoma, adherent), the AUC amounted to 0.966 and the IC50 is > 2 µM.

Regarding “NCI-H460 (large cell lung carcinoma, adherent)”, the AUC was 0.989 and the half-inhibitory concentration (IC50) was > 2 µM.

For the cell line “NCI-H1568 (lung adenocarcinoma, adherent)”, the AUC was determined as 0.977 and the half-maximal inhibitory concentration (IC50) is > 2 µM.

“NCI-H1792 (lung adenocarcinoma, adherent)”: the AUC stood at 0.978 and the concentration for half-maximal inhibition (IC50) is > 2 µM.

Consider OVCAR-8 (ovary, adherent), for which the AUC amounted to 0.985 and the IC50 was > 2 µM.

Compound in the next experiment: O=C(c1cc(Cc2n[nH]c(=O)c3ccccc23)ccc1F)N1CCN(C(=O)C2CC2)CC1 [Olaparib]
Described as above. Particulars: top dose 5 µM; screen: GDSC drug entry 1017; top dose inferred. The procedure:
as §1
With 22RV1 (prostate, adherent), the AUC was found to be 0.979 and the IC50 is > 5 µM.

639-V (bladder, adherent): the AUC was found to be 0.938 and the 50% inhibitory concentration (IC50) was > 5 µM.

Consider 8305C (thyroid, adherent), for which the AUC came to 0.974 and the IC50 was > 5 µM.

With 8505C (thyroid, adherent), the AUC was determined as 0.925 and the IC50 is > 5 µM.

As to “A427 (non-small cell lung carcinoma, adherent)”, the AUC was determined as 0.934 and the IC50 was > 5 µM.

For the cell line AU565 (breast, adherent), the AUC stood at 0.974 and the concentration for half-maximal inhibition (IC50) was > 5 µM.

Turning to AsPC-1 (pancreas, adherent), the AUC turned out to be 0.955 and the IC50 is > 5 µM.

Regarding BHT-101 (thyroid, adherent), the AUC came out at 0.937 and the IC50 is > 5 µM.

With BICR10 (head and neck, adherent), the AUC was 0.97 and the concentration for half-maximal inhibition (IC50) is > 5 µM.

Consider BT-483 (breast, adherent), for which the AUC turned out to be 0.978 and the IC50 was > 5 µM.

In the case of C32 (melanoma, adherent), the AUC worked out at 0.987 and the IC50 is > 5 µM.

Consider C-4-I (cervix, adherent), for which the AUC came out at 0.986 and the IC50 is > 5 µM.

On to “CAL-12T (non-small cell lung carcinoma, adherent)”, for which the AUC stood at 0.969 and the concentration for half-maximal inhibition (IC50) is > 5 µM.

For the cell line CAL-27 (head and neck, adherent), the AUC is 0.904 and the half-inhibitory concentration (IC50) was > 5 µM.

CAL-33 (head and neck, adherent): the AUC worked out at 0.959 and the 50% inhibitory concentration (IC50) is > 5 µM.

As to CAL-62 (thyroid, adherent), the AUC worked out at 0.97 and the IC50 is > 5 µM.

For CCK-81 (large intestine, adherent), the AUC turned out to be 0.99 and the IC50 is > 5 µM.

As for CHP-212 (neuroblastoma, adherent), the AUC worked out at 0.917 and the half-maximal inhibitory concentration (IC50) is > 5 µM.

For CHSA0108 (chondrosarcoma, adherent), the AUC was 0.918 and the half-inhibitory concentration (IC50) is > 5 µM.

The experiment is the same for the next values; noted with them: top dose 10 µM; screen: GDSC drug entry 1495.
Consider 22RV1 (prostate, adherent), for which the AUC was determined as 0.954 and the half-inhibitory concentration (IC50) was > 10 µM.

Consider 639-V (bladder, adherent), for which the AUC came out at 0.923 and the IC50 was > 10 µM.

8305C (thyroid, adherent): the AUC came out at 0.952 and the half-maximal inhibitory concentration (IC50) is > 10 µM.

As to 8505C (thyroid, adherent), the AUC came to 0.925 and the IC50 is > 10 µM.

Turning to “A427 (non-small cell lung carcinoma, adherent)”, the AUC worked out at 0.958 and the 50% inhibitory concentration (IC50) is > 10 µM.

As for AsPC-1 (pancreas, adherent), the AUC worked out at 0.936 and the IC50 was > 10 µM.

On to BHT-101 (thyroid, adherent), for which the AUC amounted to 0.924 and the half-maximal inhibitory concentration (IC50) is > 10 µM.

On to BICR10 (head and neck, adherent), for which the AUC was determined as 0.948 and the half-inhibitory concentration (IC50) is > 10 µM.

As for BT-483 (breast, adherent), the AUC came to 0.974 and the half-inhibitory concentration (IC50) was > 10 µM.

For the cell line C32 (melanoma, adherent), the AUC was found to be 0.964 and the 50% inhibitory concentration (IC50) was > 10 µM.

With “CAL-12T (non-small cell lung carcinoma, adherent)”, the AUC stood at 0.95 and the IC50 is > 10 µM.

As to CAL-27 (head and neck, adherent), the AUC was found to be 0.896 and the half-maximal inhibitory concentration (IC50) is > 10 µM.

With CAL-33 (head and neck, adherent), the AUC stood at 0.951 and the IC50 is > 10 µM.

With CAL-62 (thyroid, adherent), the AUC is 0.895 and the IC50 is > 10 µM.

With CCK-81 (large intestine, adherent), the AUC was 0.989 and the half-maximal inhibitory concentration (IC50) is > 10 µM.

Take CHP-212 (neuroblastoma, adherent): the AUC is 0.933 and the half-inhibitory concentration (IC50) was > 10 µM.

What is called IC50 is the point on the concentration scale where inhibition reaches its midpoint.
